± gives the standard deviation of the averaged measurements. Over roughly 33,000 sequences, “E-score (dimensionless, -0.5 to 0.5)” has its median near -0.046; the highest 2% begin near 0.36. This is one part of the list.
test system: T1, SpTbr T-box DNA-binding domain (GST fusion); assay: PBM E-score of 8-mer (E-score (dimensionless, -0.5 to 0.5)); Tbr is Tbrain of the sea star Patiria miniata (Pm) or the sea urchin Strongylocentrotus purpuratus (Sp); higher = stronger binding preference; most listed sequences are background and not binding sites; details: the construct has about 5 more residues each side
T1 sequence: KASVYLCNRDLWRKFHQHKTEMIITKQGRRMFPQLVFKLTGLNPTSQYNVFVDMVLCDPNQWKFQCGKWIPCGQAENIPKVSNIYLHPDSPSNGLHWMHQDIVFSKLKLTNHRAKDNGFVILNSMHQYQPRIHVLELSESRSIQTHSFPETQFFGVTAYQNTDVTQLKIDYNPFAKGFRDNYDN
Procedure: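 Universal protein-binding microarray (Agilent AMADID 016060, 60-bp probes with a 35-bp variable region) incubated with 200 nM GST-fused Strongylocentrotus purpuratus Tbr T-box DNA-binding domain (residues 362-554) in PBS pH 7.5. Scored for every ungapped 8-mer (given with its reverse complement) as E-score (range -0.5 to 0.5; >0.45 counts as bound) and Z-score of median probe intensity. Two replicate arrays (datasets 1 and 2).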
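Note: protein at 200 nM in PBS on universal double-stranded arrays.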

Row | Sequence | PBM E-score of 8-mer
1 | ATTCCATC | -0.0667 ± 0.01
2 | GGCCTTAC | -0.0589 ± 0.025
3 | CGGGCGGA | -0.172 ± 0.047
4 | AAAGATAA | -0.0695 ± 0.021
5 | CAGGACCG | -0.247 ± 0.039
6 | CTACAGGA | 0.0135 ± 0.032
7 | AAATGATC | 0.0233 ± 0.019
8 | CGGGCTCC | -0.273 ± 0.016
9 | GCCAATTA | 0.0843 ± 0.028
10 | ACGTTTAG | -0.15 ± 0.086
11 | CGTGTGTC | 0.172 ± 0.058
12 | ATGCTTCG | 0.0174 ± 0.071
13 | ACAGGATC | 0.00176 ± 0.0086
14 | CTCACGTC | 0.247 ± 0.03
15 | CGGGACTA | -0.105 ± 0.035
16 | AAAATATG | -0.255 ± 0.038
17 | GAAACGAA | 0.101 ± 0.038
18 | CCCAATTA | -0.0909 ± 0.1
19 | CCACATGA | 0.11 ± 0.048
20 | GAAGTGAC | 0.3632 ± 0.0018
21 | CGAAGGGC | -0.145 ± 0.025
22 | ACAATAAT | 0.0607 ± 0.029
23 | CGACCTCG | 0.0365 ± 0.0097
24 | TCACGAGA | 0.172 ± 0.024
25 | CACTCCTG | 0.091 ± 0.035

Row | Sequence | PBM E-score of 8-mer
26 | ACTGAAGC | 0.0518 ± 0.056
27 | GCACCAGA | -0.033 ± 0.019
28 | AGCCGCAA | 0.1248 ± 0.00087
29 | CCGCTTTC | -0.0817 ± 0.04
30 | GGGCTTCA | -0.169 ± 0.0053
31 | ATAGTCAG | 0.0204 ± 0.017
32 | CAAACGCG | 0.0349 ± 0.059
33 | GCGTTAGA | 0.15 ± 0.005
34 | AATTAACG | -0.00363 ± 0.0013
35 | ATTACCTC | -0.204 ± 0.05
36 | AACGCGAC | 0.201 ± 0.06
37 | ATGCAAAG | -0.0736 ± 0.041
38 | TGCCGACA | 0.27 ± 0.015
39 | CCATTGTA | -0.103 ± 0.047
40 | TACAAGCA | 0.00511 ± 0.0098
41 | AATGCACT | 0.035 ± 0.052
42 | ACGTATAT | -0.0745 ± 0.0049
43 | CCCGAAAC | -0.051 ± 0.055
44 | ATCTGGTC | -0.136 ± 0.039
45 | TGATGCAA | -0.0481 ± 0.027
46 | GACAAACA | 0.113 ± 0.046
47 | ACCCGGAA | -0.289 ± 0.03
48 | GTCTAGAA | -0.242 ± 0.049
49 | TATTTAGA | -0.168 ± 0.1
50 | CTGAAGGC | -0.119 ± 0.067

Row | Sequence | PBM E-score of 8-mer
51 | CATCCCCG | -0.117 ± 0.0087
52 | CAAAATTC | -0.221 ± 0.0047
53 | ATGATAGC | 0.00685 ± 0.007
54 | GAAAGTCA | -0.165 ± 0.04
55 | AAAGCCCA | -0.365 ± 0.048
56 | AAGAATTA | -0.121 ± 0.087
57 | GCTTACGA | -0.0927 ± 0.017
58 | CGTCTCAA | -0.174 ± 0.06
59 | AAAGAAAA | -0.167 ± 0.11
60 | GTAATAGA | -0.0136 ± 0.055
61 | ATTCTAAC | -0.255 ± 0.06
62 | AATTTACA | 0.143 ± 0.08
63 | AGTATACG | 0.0625 ± 0.0019
64 | CCCCTTAC | -0.133 ± 0.057
65 | CAATAGCA | 0.0374 ± 0.022
66 | ACTACGCC | 0.0466 ± 0.028
67 | ATAACATC | -0.0812 ± 0.032
68 | ACTGGGTC | -0.102 ± 0.054
69 | TGGCGCCA | 0.338 ± 0.027
70 | GGAAAGAA | -0.287 ± 0.0031
71 | ATGGTATA | -0.0833 ± 0.077
72 | TGCGCCAA | 0.16 ± 0.021
73 | CGGGGTCA | -0.162 ± 0.032
74 | CCTGGGAC | -0.141 ± 0.022
75 | CCCTCCCA | -0.153 ± 0.058

Row | Sequence | PBM E-score of 8-mer
76 | AACAAGTA | 0.154 ± 0.015
77 | AACCTCTG | -0.137 ± 0.075
78 | GTTCAATA | -0.174 ± 0.0066
79 | AAGATCCA | -0.122 ± 0.0018
80 | CTTTCTTA | -0.0347 ± 0.024
81 | CTTCCGGA | -0.295 ± 0.023
82 | AGTACGCG | -0.0599 ± 0.077
83 | GACTCGGC | -0.0487 ± 0.0043
84 | GCGTAATA | 0.0418 ± 0.021
85 | TATCCCCA | -0.254 ± 0.023
86 | GAATAGTC | -0.113 ± 0.021
87 | ATGGGAAA | -0.2619 ± 0.002
88 | CACTCCAA | -0.08 ± 0.041
89 | CAAAAGTC | 0.00208 ± 0.0086
90 | ATAGCTCC | -0.185 ± 0.016
91 | GCTATACA | -0.182 ± 0.023
92 | ACCATAGT | -0.151 ± 0.02
93 | GTGTCTTA | -0.0357 ± 0.034
94 | CGCCATCC | 0.0293 ± 0.0097
95 | GTAAACAA | 0.15 ± 0.041
96 | AAACGAGT | 0.0307 ± 0.0047
97 | AACGATGC | 0.0143 ± 0.033
98 | AGTTTCAA | -0.224 ± 0.014
99 | CTCAATGC | -0.0158 ± 0.0095
100 | ATGTTGAA | -0.1 ± 0.035

Row | Sequence | PBM E-score of 8-mer
101 | AGCTCCTC | -0.213 ± 0.031
102 | CCGTGCCC | -0.244 ± 0.013
103 | TCCACGAA | -0.18 ± 0.043
104 | CATGAGGA | -0.28 ± 0.04
105 | CCCCACGA | 0.105 ± 0.026
106 | GACATTAA | -0.109 ± 0.042
107 | CGACTTGC | 0.0423 ± 0.016
108 | TACAGCTA | -0.231 ± 0.11
109 | CGTGAAAC | 0.338 ± 0.0092
110 | ACAATGAT | 0.0691 ± 0.01
111 | GTGAGGAA | 0.3085 ± 0.00095
112 | ACGCAAAT | 0.0967 ± 0.016
113 | GTTGCGAA | 0.393 ± 0.0099
114 | TCGGGCAA | 0.0261 ± 0.044
115 | AGACAGCG | -0.00288 ± 0.048
116 | GTCGGTAA | 0.0939 ± 0.0036
117 | ATATAAAC | -0.214 ± 0.1
118 | CGCACGGC | 0.0428 ± 0.025
119 | AGTCGGCC | -0.169 ± 0.029
120 | GGGTTTAA | 0.0146 ± 0.03
121 | GAGGAATC | 0.0233 ± 0.0064
122 | AATAACCA | -0.195 ± 0.027
123 | AATACAAC | -0.151 ± 0.069
124 | CTTACCAC | 0.218 ± 0.022
125 | ATGATTAC | 0.000845 ± 0.044

Row | Sequence | PBM E-score of 8-mer
126 | ACATTCAG | -0.015 ± 0.018
127 | AGCCAGTA | -0.0497 ± 0.051
128 | AAATAAAA | -0.0429 ± 0.1
129 | TAGATATA | -0.135 ± 0.043
130 | AACACACG | 0.211 ± 0.033
131 | TGCACCAA | -0.0221 ± 0.038
132 | TATGTTCA | 0.049 ± 0.067
133 | AGGCTGCC | -0.0324 ± 0.034
134 | CATACACC | 0.142 ± 0.057
135 | AACGTTGA | -0.00954 ± 0.074
136 | CAAGGGTA | -0.0666 ± 0.024
137 | CGATTGTA | -0.0533 ± 0.023
138 | ATTGCCTC | -0.203 ± 0.03
139 | CTCGATTA | 0.00121 ± 0.031
140 | CGGGCGTC | 0.117 ± 0.01
141 | CGGAGAGC | -0.145 ± 0.016
142 | AGCTAAAT | -0.0908 ± 0.017
143 | ATATGGCC | -0.175 ± 0.028
144 | GAAAACTA | -0.125 ± 0.057
145 | AGAGTTGC | -0.0299 ± 0.027
146 | GGAAACAC | 0.0658 ± 0.036
147 | ACGTGGCT | 0.0551 ± 0.0085
148 | GCAAGGCA | -0.14 ± 0.028
149 | AATGCTTG | -0.0282 ± 0.054
150 | TTGCTAAA | 0.109 ± 0.08

Row | Sequence | PBM E-score of 8-mer
151 | GTCCGCCA | 0.0165 ± 0.02
152 | GCAGATGC | -0.209 ± 0.12
153 | AAGCCAAT | -0.214 ± 0.063
154 | CACAGGCG | 0.165 ± 0.068
155 | TAACAAAA | 0.0559 ± 0.015
156 | TCGTTGCA | -0.0951 ± 0.077
157 | GGCCACAC | 0.3886 ± 0.00083
158 | ACATTGTA | 0.0327 ± 0.025
159 | GCCGCAGA | -0.227 ± 0.0099
160 | CATTTCAG | -0.00825 ± 0.03
161 | GCTCGCCA | 0.231 ± 0.017
162 | ACTGGTAA | -0.182 ± 0.037
163 | GCTCCCAA | -0.102 ± 0.066
164 | AAACGTGA | 0.156 ± 0.0067
165 | AGCAGTTG | 0.0722 ± 0.002
166 | ACCGCGGC | -0.0624 ± 0.06
167 | CAACCTGC | 0.149 ± 0.015
168 | ACTACCGC | 0.0104 ± 0.053
169 | AAGGCTCG | -0.153 ± 0.018
170 | CCCTTCGG | -0.254 ± 0.036
171 | AGACTCCC | -0.0835 ± 0.033
172 | TGCCTCAA | -0.148 ± 0.046

From the supplement of paper PMC4166925
